The values that follow come from patent publication US20190112393 (published 2019).

What all share (test): SPR
In general terms: SPR reads the build-up and loss of mass on a sensor chip optically.

In one assay the target is T1, mouse FcγRI (mouse, UniProt P26151).
T1 chain: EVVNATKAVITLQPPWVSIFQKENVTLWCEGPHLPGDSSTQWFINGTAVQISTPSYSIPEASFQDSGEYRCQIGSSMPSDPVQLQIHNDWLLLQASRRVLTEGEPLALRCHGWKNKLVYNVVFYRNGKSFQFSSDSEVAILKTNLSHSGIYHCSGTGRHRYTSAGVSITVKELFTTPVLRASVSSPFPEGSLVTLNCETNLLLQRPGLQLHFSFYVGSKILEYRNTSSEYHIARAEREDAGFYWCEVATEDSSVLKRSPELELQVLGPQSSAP

In a further assay the target is T2, mouse FcγRIV (mouse, UniProt A0A0B4J1G0).
T2 chain: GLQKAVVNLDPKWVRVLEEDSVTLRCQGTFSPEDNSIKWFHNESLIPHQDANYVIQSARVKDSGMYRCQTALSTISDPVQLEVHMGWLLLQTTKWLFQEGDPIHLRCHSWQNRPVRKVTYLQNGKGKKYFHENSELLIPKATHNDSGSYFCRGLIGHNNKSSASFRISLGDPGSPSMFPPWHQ

A further assay deals with T3, mouse FcγRIIb (mouse, UniProt P08101).
T3 chain: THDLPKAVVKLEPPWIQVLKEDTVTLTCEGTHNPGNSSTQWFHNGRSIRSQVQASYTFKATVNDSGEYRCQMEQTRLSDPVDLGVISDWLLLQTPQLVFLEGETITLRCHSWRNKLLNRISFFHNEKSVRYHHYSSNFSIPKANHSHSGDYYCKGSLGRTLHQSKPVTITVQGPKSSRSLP

Another assay concerns the target T4, mouse FcγRIII (mouse, UniProt P08508).
T4 chain: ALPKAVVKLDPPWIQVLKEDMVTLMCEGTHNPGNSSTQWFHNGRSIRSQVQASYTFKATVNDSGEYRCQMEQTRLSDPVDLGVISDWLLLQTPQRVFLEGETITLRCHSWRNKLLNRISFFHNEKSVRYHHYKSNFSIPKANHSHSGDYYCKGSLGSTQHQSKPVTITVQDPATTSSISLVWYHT

A further assay addresses T5, human FcγRIa (human, UniProt P12314).
T5 chain: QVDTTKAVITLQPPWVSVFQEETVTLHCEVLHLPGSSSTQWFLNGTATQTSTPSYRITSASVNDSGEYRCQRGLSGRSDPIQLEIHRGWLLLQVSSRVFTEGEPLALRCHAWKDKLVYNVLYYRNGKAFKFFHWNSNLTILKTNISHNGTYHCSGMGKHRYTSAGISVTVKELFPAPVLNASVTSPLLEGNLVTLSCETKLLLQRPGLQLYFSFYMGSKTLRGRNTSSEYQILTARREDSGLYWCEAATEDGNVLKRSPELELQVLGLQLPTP

B1: VH3/L(WT)-IgG1-F760 (antibody)
chain 1: QVQLQESGPGLVKPSETLSLTCAVSGHSISHDHAWSWVRQPPGEGLEWIGFISYSGITNYNPSLQGRVTISRDNSKNTLYLQMNSLRAEDTAVYYCARSLARTTAMDYWGEGTLVTVSS[sequence of human IgG1 constant region with L235R S239K (EU numbers) omitted]
chain 2: DIQMTQSPSSLSASVGDRVTITCRASQDISSYLNWYQQKPGKAPKLLIYYTSRLHSGVPSRFSGSGSGTDFTFTISSLQPEDIATYYCQQGNTLPYTFGQGTKVEIKRTVAAPSVFIFPPSDEQLKSGTASVVCLLNNFYPREAKVQWKVDNALQSGNSQESVTEQDSKDSTYSLSSTLTLSKADYEKHKVYACEVTHQGLSSPVTKSFNRGEC
Take B1: the binding result with mouse FcγRI, with mouse FcγRIV, with mouse FcγRIIb and in the assay with mouse FcγRIII was “no binding” in each case.

B2: IL6R-G4d/IL6R-L (antibody)
chain 1: DIQMTQSPSSLSASVGDRVTITCRASQDISSYLNWYQQKPGKAPKLLIYYTSRLHSGVPSRFSGSGSGTDFTFTISSLQPEDIATYYCQQGNTLPYTFGQGTKVEIKASTKGPSVFPLAPCSRSTSESTAALGCLVKDYFPEPVTVSWNSGALTSGVHTFPAVLQSSGLYSLSSVVTVPSSSLGTKTYTCNVDHKPSNTKVDKRV[sequence of human IgG4 Fc with S228P (EU numbers) omitted]
chain 2: B1 chain 2
For orientation: Kd means the free concentration of one partner at which half of the binding sites on the other are occupied at equilibrium, for simple one-to-one binding. Lower therefore signals tighter binding. In the assay with human FcγRIa, B2 returned an equilibrium dissociation constant (Kd) of 0.66 nM.
